Structures can show the parent of a compound that is named as a salt. ± gives the standard deviation of the averaged measurements. The full ranking holds about 1,300 compounds; the median of “normalised cell viability” is about 1, and the lowest 2% start at about 0.14. The list shows a part of the results.
System: V-C8 (BRCA2-deficient hamster cells)
Experiment: normalised cell viability (fraction of plate median); higher = more viable cells (less toxic)
Conditions: 5 µM
Method in brief: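 Library drugs, held as 10 mM stocks in DMSO, were diluted to 5 μM in 100 μl medium and added to 96-well plates of V-C8 hamster cells, either lacking BRCA2 or with BRCA2 restored, 24 h after seeding. Plates ran for 3 days (screen 1) or 6 days (screen 2), alongside solvent-only wells. Viability came from a resazurin readout, median-plate normalised, as the mean of triplicate wells.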

Row | Structure (SMILES) | normalised cell viability (treatment time: 3 days) | normalised cell viability (treatment time: 6 days)
1 | CC(C)(C)NC[C@H](O)c1ccc(O)c(CO)c1 [Levalbuterol hydrochloride] | 1.03 ± 0.049 | 0.99 ± 0.13
2 | CCn1cc(C(=O)O)c(=O)c2cnc(N3CCCC3)nc21 [Piromidic acid] | 1.02 ± 0.051 | 1.03 ± 0.08
3 | O=S(=O)(O)CCS [Mesna] | 1.04 ± 0.022 | 1.06 ± 0.043
4 | CN(C)[C@@H]1C(O)=C(C(N)=O)C(=O)[C@@]2(O)C(O)=C3C(=O)c4c(O)ccc(Cl)c4[C@@H](O)[C@H]3C[C@@H]12 [Demeclocycline hydrochloride] | 0.948 ± 0.035 | 0.937 ± 0.015
5 | Cn1c([N+](=O)[O-])cnc1COC(N)=O [Ronidazole] | 0.867 ± 0.095 | 0.964 ± 0.1
6 | O=C1c2ccccc2S(=O)(=O)N1CCCCN1CCN(c2ncccn2)CC1 [Ipsapirone] | 1.09 ± 0.075 | 1.04 ± 0.021
7 | COc1ccc(C(=O)NCc2ccc(OCCN(C)C)cc2)cc1OC [Itopride] | 0.972 ± 0.025 | 1 ± 0.1
8 | N[C@@H](C(=O)N[C@@H]1C(=O)N2C(C(=O)O)=C(Cl)CS[C@H]12)c1ccccc1 [Cefaclor hydrate] | 0.997 ± 0.039 | 1.09 ± 0.12
9 | CC(Oc1ccccc1)C(=O)N[C@@H]1C(=O)N2[C@@H]1SC(C)(C)[C@@H]2C(=O)O (stereo partly specified) [Phenethicillin potassium salt] | 0.913 ± 0.037 | 0.998 ± 0.043
10 | CN(C)CCOC(=O)COc1ccc(Cl)cc1 [Meclofenoxate hydrochloride] | 1.03 ± 0.036 | 0.992 ± 0.057
11 | N=C(N)N/N=C/c1c(Cl)cccc1Cl [Guanabenz acetate] | 1.047 ± 0.0079 | 0.973 ± 0.067
12 | OC(CCN1CCCCC1)(c1ccccc1)C1CCCCC1 (stereo unspecified) [Trihexyphenidyl-D,L Hydrochloride] | 1.02 ± 0.023 | 1.03 ± 0.062
13 | CCCc1nc(C(C)(C)O)c(C(=O)O)n1Cc1ccc(-c2ccccc2-c2nnn[nH]2)cc1 [Olmesartan] | 1.09 ± 0.073 | 1.11 ± 0.034
14 | CN(CCOc1ccc(CC2SC(=O)NC2=O)cc1)c1ccccn1 (stereo unspecified) [Rosiglitazone Hydrochloride] | 0.996 ± 0.043 | 0.901 ± 0.08
15 | CCC(=O)OCC(=O)[C@@]1(OC(=O)CC)[C@H](C)C[C@H]2[C@H]3[C@H]([C@@H](O)C[C@@]21C)[C@@]1(C)C=CC(=O)C=C1C[C@H]3Cl [Alclometasone dipropionate] | 0.957 ± 0.037 | 1.03 ± 0.024
16 | CC(N)C12CC3CC(CC(C3)C1)C2 (stereo unspecified) [Rimantadine Hydrochloride] | 1.04 ± 0.017 | 1.04 ± 0.029
17 | c1ccc2c(c1)CCCc1cc(NCCN3CCOCC3)nnc1-2 | 0.351 ± 0.016 | 0.496 ± 0.056
18 | COc1ccc(C[C@@H]2c3cc(OC)c(OC)cc3CC[N@+]2(C)CCC(=O)OCCCCCOC(=O)CC[N@@+]2(C)CCc3cc(OC)c(OC)cc3[C@H]2Cc2ccc(OC)c(OC)c2)cc1OC [Cisatracurium besylate] | 0.939 ± 0.038 | 0.934 ± 0.028

Reference: the supplement of paper PMC6609913
